Out of some 310,000 compounds screened, about 14,000 (4.5%) showed an effect of 50% or more. The effect is printed as a negative number. The list shows a part of the results.
These molecules were tested against human ether-à-go-go-related gene (hERG) potassium channel (human, UniProt Q12809) (assay: primary screen, population patch clamp on CHO cells stably expressing hERG).
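Note: peak tail current of the secondary pulse compared with the same well before compound.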

human ether-à-go-go-related gene (hERG) potassium channel, sequence (Q12809 whole entry, looked up): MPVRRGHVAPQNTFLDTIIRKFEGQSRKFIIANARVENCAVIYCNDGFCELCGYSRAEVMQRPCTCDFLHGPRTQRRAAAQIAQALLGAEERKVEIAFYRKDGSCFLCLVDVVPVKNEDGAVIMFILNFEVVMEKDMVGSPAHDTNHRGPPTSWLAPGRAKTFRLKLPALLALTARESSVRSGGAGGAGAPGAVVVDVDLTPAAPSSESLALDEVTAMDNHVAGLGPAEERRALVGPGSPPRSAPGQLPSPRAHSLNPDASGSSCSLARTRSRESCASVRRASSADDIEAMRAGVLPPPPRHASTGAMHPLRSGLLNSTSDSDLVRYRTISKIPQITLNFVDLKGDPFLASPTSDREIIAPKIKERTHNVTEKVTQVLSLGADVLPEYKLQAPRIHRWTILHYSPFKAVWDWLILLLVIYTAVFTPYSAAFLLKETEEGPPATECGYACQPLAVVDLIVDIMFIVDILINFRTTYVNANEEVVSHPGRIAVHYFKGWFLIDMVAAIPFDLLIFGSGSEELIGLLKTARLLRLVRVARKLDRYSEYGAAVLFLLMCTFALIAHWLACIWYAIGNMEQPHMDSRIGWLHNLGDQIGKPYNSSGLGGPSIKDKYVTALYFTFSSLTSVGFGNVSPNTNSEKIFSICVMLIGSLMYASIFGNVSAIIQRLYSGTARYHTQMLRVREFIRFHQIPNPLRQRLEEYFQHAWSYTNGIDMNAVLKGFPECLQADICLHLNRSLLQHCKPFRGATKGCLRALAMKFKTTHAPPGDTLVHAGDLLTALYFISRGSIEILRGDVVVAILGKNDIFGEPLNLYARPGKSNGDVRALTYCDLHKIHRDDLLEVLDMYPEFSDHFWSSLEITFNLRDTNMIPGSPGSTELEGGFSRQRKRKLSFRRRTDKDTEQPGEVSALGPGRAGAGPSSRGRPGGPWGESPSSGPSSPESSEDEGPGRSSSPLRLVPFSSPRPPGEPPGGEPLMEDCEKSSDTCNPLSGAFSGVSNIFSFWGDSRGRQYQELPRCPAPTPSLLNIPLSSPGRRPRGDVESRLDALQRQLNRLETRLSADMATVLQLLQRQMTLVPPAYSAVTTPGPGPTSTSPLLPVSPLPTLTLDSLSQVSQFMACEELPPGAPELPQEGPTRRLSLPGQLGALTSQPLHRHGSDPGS

Row | Compound | hERG current change (%, negative = inhibition) at 10uM
1 | CC1=C(C#N)C(NC(=O)c2ccc(Cl)cc2)(C(F)(F)F)C(=O)N1 (stereo not shown) | -6.82%
2 | O=C1COc2ccc(C(=O)COC(=O)Cc3ccccc3)cc2N1 | -13%
3 | O=C(O)c1ccc(-c2ccco2)n1Cc1ccccc1 | 7.82%
4 | COCCOc1ccc(C(F)(F)F)cc1NC(=O)c1ccc(F)cc1 | 3.33%
5 | COc1ccc(Cl)cc1NC(=O)CN1CCN(Cc2ccccc2)CC1 | -68.9%
6 | Cn1nc(C(=O)N2CCCC2)c2ccccc2c1=O | 23%
7 | CCOC(=O)c1c(-c2cccs2)csc1NC(=O)CN1CC(C)OC(C)C1 (stereo not shown) | -0.145%
8 | CC(NC(=O)c1ccccc1C(=O)O)c1ccc(-n2ccnc2)cc1 (stereo not shown) | 16%
9 | CC1(C)C(C#N)=C(N)Oc2c1c(=O)oc1ccccc21 | 0.829%
10 | CCOC(=O)C1CCCN(c2c(NCCN(CC)c3ccccc3)c(=O)c2=O)C1 (stereo not shown) | -14.8%
11 | Cc1cc(C(F)(F)F)c2sc(N)nc2n1 | 5.61%
12 | Cc1ccc(CN2CCCN(Cc3cc(C)ccc3C)S2(=O)=O)cc1 | 7.27%
13 | CCOC(=O)c1ccc(NC(=O)CN2C(=O)C(=O)N(CC(C)C)C2=O)cc1 | 3.66%
14 | COc1ccc2c(c1)[n+](=O)c(C(C)=O)c(C)n2[O-] | 6.81%
15 | CC(C)(C)NC(=O)NC(=O)COC(=O)c1nc(-c2ccccc2)n(-c2cccc(C(F)(F)F)c2)n1 | -2.43%
16 | COc1ccc(NC(=O)N2CCCC2C(=O)NCc2cccs2)cc1 (stereo not shown) | 9.81%
17 | O=S1(=O)CC2(N3CCOCC3)CCCCCCC21 (stereo not shown) | -19.8%
18 | CN(C)S(=O)(=O)c1cccc(NC(=O)COC(=O)/C=C/c2ccc(Br)o2)c1 | -25.9%
19 | Cc1ccc2oc(=O)c3cnn(CC(=O)Nc4ccccc4N4CCN(C)CC4)c3c2c1 | -11%
20 | O=[N+]([O-])c1ccccc1NCCOc1ccccc1 | 5.3%
21 | CCc1nnc(NC(=O)C2=NN(C3CCS(=O)(=O)C3)C(=O)CC2)s1 (stereo not shown) | 31.1%
22 | COc1cc(C)ccc1OCCOCCOc1ccc(C)cc1[N+](=O)[O-] | -36.1%
23 | O=C(Oc1nsnc1N1CCOCC1)N(c1ccccc1)c1ccccc1 | -32.5%

Row | Compound | hERG current change (%, negative = inhibition) at 10uM
24 | Cc1cc(C(=O)NCc2cccs2)nn1C | 9.53%
25 | CCCCNC(=S)NCCN1CCN(C(=S)NCCCC)CC1.Cl | -8.2%
26 | O=C(O)c1cc(NS(=O)(=O)c2cccs2)cc(NS(=O)(=O)c2cccs2)c1 | 0.184%
27 | CN1CCN(S(=O)(=O)c2ccc(NC(=O)c3cccs3)cc2)CC1 | -11.3%
28 | Cc1cccc(C)c1NC(=O)CCCn1nc(C)c2c(C)n(-c3ccccc3)nc2c1=O | 3.28%
29 | O=C(O)c1[nH]c2ccccc2c1CC(=O)N1CCOCC1 | -1.46%
30 | CCOc1ccc(C2c3c(oc4ccccc4c3=O)C(=O)N2CCCN2CCOCC2)cc1OCC (stereo not shown) | 1.66%
31 | CCc1ccc(/C=C(\Cl)c2nc3cc(Cl)ccc3c(=O)[nH]2)cc1 | 20.5%
32 | Cc1cc(NS(=O)(=O)Cc2ccccc2)cc(C)c1OCC(=O)N1CCOCC1 | -0.529%
33 | Cn1c(SCC(=O)Nc2ccc3nc(SCC(=O)N4CCCC4)sc3c2)nnc1-c1ccccc1 | 8.67%
34 | CN(CCN1CCOCC1)C(=O)CC1C(=O)NCCN1Cc1ccccc1C(F)(F)F (stereo not shown) | 11.7%
35 | Cc1nn(-c2ccccc2)c(C)c1NC(=O)COc1ccc([N+](=O)[O-])cc1 | -69.4%
36 | O=C(/C=C/Nc1ccc(F)cc1F)c1ccc(Br)cc1 | 19.4%
37 | CC(C)N1CCN(CC2COc3ccccc3O2)CC1.Cl (stereo not shown) | -19.4%
38 | CNC(=O)NC(=O)CN1C(=O)NC2(CCOc3ccccc32)C1=O (stereo not shown) | 18.9%
39 | O=C(CN1C(=O)C2(OCCO2)c2ccccc21)c1ccc(Cl)cc1 | -26%
40 | COc1ccc(N2CCN(C(=O)c3ccc(NS(=O)(=O)c4cccc(F)c4)cc3)CC2)cc1 | -29.8%
41 | COCCCN(C(=O)Nc1cccc(Cl)c1)C(C)c1ccccn1 (stereo not shown) | 3.29%
42 | CCC1(C)COC(C)(CC(=O)NNC(=O)Nc2ccccc2)OC1 (stereo not shown) | 15.3%
43 | CCOCCCNC(=S)Nc1ccc2nc(N3CCOCC3)cc(C)c2c1 | -7.68%
44 | CCOC(=O)c1ccc(OC)c(OC)c1Cl | 16.4%
45 | COc1cc(Br)c(Br)c(Br)c1N | 6.99%
46 | CCOc1ccc(C(OC(=O)c2ccco2)C(=O)NCc2ccc(C)cc2)cc1 (stereo not shown) | 10.4%

Row | Compound | hERG current change (%, negative = inhibition) at 10uM
47 | Cc1cc(C(=O)NNC(=O)c2cccc([N+](=O)[O-])c2)n[nH]1 | 18.9%
48 | COc1ccc(NC(=O)CN2CCN(c3ccc(F)cc3)CC2)cc1 | -4.62%
49 | Cc1cc(C)cc(NC(=O)C(OC(=O)c2ccc(O)cc2)c2ccccc2)c1 (stereo not shown) | -15.2%
50 | O=C(O)CC(CNC(=O)C1CCCN1C(=O)OCc1ccccc1)c1ccccc1 (stereo not shown) | 16.3%
51 | CCOc1ccc(Cn2nnc(C(=O)NCCc3ccccc3)c2N)cc1 | 2.1%
52 | CCOC(=O)Cn1c(=O)c2c(nc3n2CC(C)CN3Cc2ccccc2)n(C)c1=O (stereo not shown) | -44.4%
53 | CC(C)Cc1[nH]c(=O)c(C#N)c2c1CCCC2 | -3.79%
54 | CC(=O)C1CCCN(C(=O)c2ccc3nc(Cc4cccc(Cl)c4)oc3c2)C1 (stereo not shown) | -10.4%
55 | O=C(NCCN1CCCCC1)c1cc(Cl)ccc1Cl | 1.65%
56 | CCN(CC(=O)Nc1ccc(C(=O)OC)cc1)Cc1ccccc1.O=C(O)C(=O)O | -3.03%
57 | Cc1oc(-c2ccc(Cl)cc2)nc1CSCC(=O)NC1CCN(Cc2ccccc2)CC1 | -73.1%
58 | C=CCn1c(SCc2ccc(C(=O)Nc3nccs3)cc2)nnc1-c1ccc(C)c(Cl)c1 | -2.77%
59 | O=C(CN1C(=O)C(=O)c2ccccc21)c1ccc(Cl)cc1 | 7.41%
60 | CCc1cc2c(CN(C)Cc3ccccc3F)cc(=O)oc2cc1O | 8.45%
61 | Cc1cc(F)ccc1S(=O)(=O)N1CCCOC1CNC(=O)C(=O)NCCc1ccccc1 (stereo not shown) | -19.1%
62 | Cc1ccc(-c2nc3ccccn3c2C=O)cc1 | 3.26%
63 | Cc1ccc(NCc2nc3ccccc3n2C)cc1C | 6.28%
64 | O=C(Cc1ccccc1)NCC(=O)OCC(=O)c1ccc(Cl)c([N+](=O)[O-])c1 | -2.74%
65 | COc1ccc(C(=O)N/C(=C/c2ccc(Cl)cc2)C(=O)NCc2ccncc2)cc1 | -65.4%
66 | CN1CCN(c2nc([N+](=O)[O-])nn2C)CC1 | 4.26%
67 | COc1ccc2cc(C3=CCCCC3)ncc2c1 | -0.981%
68 | Cc1ccc([N+](=O)[O-])c2c1C(N1CCCCC1)C(C)(C)O2 (stereo not shown) | -17.7%
69 | O=C(C#Cc1ccccc1)Nc1ccccc1F | 0.842%

Row | Compound | hERG current change (%, negative = inhibition) at 10uM
70 | CCCC(c1nnnn1CCc1ccccc1)N1CCN(C2CCCC2)CC1 (stereo not shown) | -48.9%
71 | CC(=O)/C(=N\Nc1ccc(C)cc1)Sc1nncn1C | -12.8%
72 | CCc1nc(C)ccc1OCC(=O)O.Cl | -3.86%
73 | Cc1nc[nH]c(=O)c1Br | 11.6%
74 | Cc1cccc(NS(=O)(=O)c2c(C(=O)N3CCCC3)c(C)n(C)c2C)c1 | 18.1%
75 | COc1cccc(NC(=O)CN(C)C(C)C(=O)N2CCCC2)c1 (stereo not shown) | -9.5%
76 | COc1cc(/C=C/C(=O)OCN2C(=O)c3ccccc3C2=O)ccc1OC(F)F | 13.3%
77 | O=C(Nc1ccccc1Cl)c1cc(=O)c2ccccc2o1 | 13.1%
78 | CC(=O)OC1N=C(c2ccccc2Cl)c2cc(Br)ccc2NC1=O (stereo not shown) | -40.3%
79 | CN(C)c1ccc(CNn2cnnc2)cc1 | -10.3%
80 | CCC(=O)Nc1nc(C)c(-c2csc(Nc3cccc(C(=O)O)c3)n2)s1 | 0.236%
81 | CCc1cc2cc(C)ccc2nc1SCC(=O)N1CCN(C(=O)c2ccco2)CC1 | -53.4%
82 | CCOC(=O)c1nnn(-c2nc(N(C)C)nc(N(C)C)n2)c1C | 14.1%
83 | Cn1cnc([N+](=O)[O-])c1SCC(O)CCl (stereo not shown) | 15.9%
84 | Cc1ccc(CCC(=O)Nc2ccc(S(N)(=O)=O)cc2)o1 | 10.2%
85 | COc1cccc(/C=N/NC(=O)CCc2c(C)n[nH]c2C)c1 | 23%
86 | O=C(COC(=O)c1ccc(O)cc1O)NC12CC3CC(CC(C3)C1)C2 | -5.6%
87 | CCCCN1C(=O)c2ccc(C(=O)Nc3ccc(S(=O)(=O)N(C)C)cc3)cc2C1=O | -0.448%
88 | Cn1nnc(NC(=O)c2cccs2)n1 | -7.13%
89 | CCCCN(C)C(=O)C1CCN(CCCc2ccccc2)CC1.O=C(O)C(=O)O | -73.4%
90 | O=C(Nc1ccccc1N1CCN(C(=O)c2ccc(Cl)cc2)CC1)c1cccc(F)c1 | -78.9%
91 | CCc1nnc(NC(=O)c2ccc(-c3ccc([N+](=O)[O-])cc3Cl)o2)s1 | 12.6%

— article PMC4336329 (PLoS ONE, 2015)
